This is one part of the list. Further columns of the screen follow, without active or inactive calls.

This assay is described as follows: compounds boosting herpes simplex virus growth – fold increase, host cell viability (AID 1956). Further: tested in PC3 cells. As to conditions: HSV replication augmentation in cells; fold increase: measured here: primary screen fold increase 10 uM, at 10 µM, stronger effect = higher value; viability: measured here: host cell viability series, at 25 µM, stronger effect = lower value.
Consider `CC1=Nc2ccccc2/C1=C/c1sc(=S)n(-c2cccc(C(=O)O)c2)c1O`, for which the fold increase stood at 6.39 and the viability (usually a read-out of living cells in per cent, often relative to untreated cells) was determined as 91.8%.

Take `N#C/C(=C(/O)c1ccco1)c1nc2ccccc2[nH]1`: the fold increase amounted to 1.38 and the viability came to 98%.

As for `COc1cc(-c2cc(C(=O)Nc3ccc(S(=O)(=O)Nc4ncccn4)cc3)c3ccccc3n2)cc(OC)c1OC`, the fold increase was 1.4 and the viability was 97.5%.

Regarding `C=CCNC(=O)C1CC2Cn3c(nc4ccccc43)C2N1C` (stereo not given), the fold increase is 1.35 and the viability is 99.7%.

`CC(C)(C)C(=O)Oc1ccc2cc(-c3ccc4ccccc4n3)c(=O)oc2c1`: the fold increase was 4.27 and the viability was found to be 90.5%.

For `S=C(Nc1cccnc1)NC1CCCC1`, the fold increase is 1.32 and the viability came to 99.7%.

For the compound `Cc1cc(C(=O)NNc2ccccc2F)no1`, the fold increase was found to be 1.37 and the viability came to 89.7%.

`O=C1NC(=O)/C(=C\c2ccc(OCc3cnc(Cl)s3)cc2)S1`: the fold increase was found to be 1.69 and the viability was found to be 103%.

In the case of `CCOC(=O)c1sc(S(C)=O)c2c1CCc1conc1-2` (stereo not given), the fold increase came out at 1.38 and the viability stood at 94.6%.

`O=C1/C(=C/C=C/c2ccco2)SC(=S)N1c1ccc(O)cc1` gave a fold increase of 1.33.

Consider `C(=C\c1ccco1)/C1=NN(c2ccccc2)C(c2ccco2)C1` (stereo not given), for which the fold increase was 2.28 and the viability amounted to 103%.

In the case of `COc1ccc(-n2c(O)c(/C=N/NS(=O)(=O)c3cc(C)ccc3C)c3ccccc3c2=O)cc1OC`, the fold increase was found to be 6.36 and the viability was found to be 93.1%.

The compound `Cn1cccc1Cc1nnc(SCC(=O)N2CCc3ccccc32)n1-c1ccc(F)cc1` gave a fold increase of 1.6.

`COc1ccc(-n2c(SCC(=O)Nc3sc4c(c3C#N)CCCC4)nnc2-c2ccccc2OC)cc1` showed a fold increase of 1.13.

For the compound `N=C1/C(=C\c2coc3ccc(O)cc3c2=O)C(=O)N=C2SC=CN12`, the fold increase is 1.64 and the viability turned out to be 92.8%.

In the case of `O=C(C1=NN[C@@H]2C(=O)N(c3cccc(F)c3)C(=O)[C@H]12)c1cnccn1`, the fold increase is 1.34 and the viability stood at 91.8%.

For `CCN(CC)c1ccc2cc(C(N)=O)/c(=N\NC(=O)c3ccncc3)oc2c1`, the fold increase stood at 7.7 and the viability was determined as 75.7%.

As to `N#CC(C#N)=C1C=C2C=C(N3CCCCCC3)CCC2CC1` (stereo not given), the fold increase is 8.21 and the viability came out at 73.7%.

With `CCOc1ccc(C2C(C#N)=C(N)SC(N)=C2C#N)cc1OC`, the fold increase was found to be 1.37 and the viability amounted to 96%.

Consider `O=C(CCCCl)Oc1ccc2cc(-c3ccc4ccccc4n3)c(=O)oc2c1`, for which the fold increase was found to be 4.9 and the viability was 100%.

Turning to `C[n+]1ccc(/C=C/c2c[nH]c3ccccc23)cc1`, the fold increase stood at 2.29 and the viability worked out at 79.8%.

As to `O=C(O)C1Sc2[nH]c(=O)sc2C2c3cc(Br)ccc3OC(=O)C12` (stereo not given), the fold increase was found to be 1.95 and the viability was determined as 99.8%.

On to `Cc1ccc(-c2csc(NC(=O)C3=COCCO3)n2)cc1`, for which the fold increase came out at 1.35 and the viability worked out at 92.8%.

`COC(=O)c1ccccc1-c1ccc(/C=N/NC(N)=O)o1`: the fold increase came out at 1.39 and the viability came out at 96.7%.

Regarding `COc1ccc(CCn2c(-c3ccco3)nc3nc4ccccc4nc32)cc1`, the fold increase amounted to 1.52 and the viability amounted to 68.3%.

`COc1ccc(CN(C(=O)Cc2cccs2)C(C(=O)NC2CCCC2)c2ccncc2)cc1` (stereo not given): the fold increase turned out to be 1.37 and the viability amounted to 97.6%.

`CCN(CC)S(=O)(=O)c1ccc(S(=O)(=O)N2CCN(CCC#N)CC2)cc1`: the fold increase stood at 1.43 and the viability was 96.2%.

Turning to `CCn1c(C)c(C2=CCN(S(=O)(=O)c3ccccc3)CC2)c2ccccc21`, the fold increase was 1.42 and the viability turned out to be 89.9%.

For the compound `O=C(NC(=S)Nc1ccc(Oc2ccc(Cl)cc2)cc1)c1ccccc1`, the fold increase was determined as 1.22.

Regarding `CCC1=C2CC[C@H]3C(=O)N(C)C(=O)[C@H]3[C@H]2[C@@]2(Cc3ccccc3)C(=NCC(=O)OC)OC(=O)N2C1=O`, the fold increase was 1.22 and the viability was 101%.

Regarding `O=C1N=c2ccccc2=C1c1sc(=S)n(CC2CCCO2)c1O` (stereo not given), the fold increase is 1.24.

As for `O=C(COC(=O)c1ccccn1)Nc1ccc2c(c1)OCO2`, the fold increase came to 1.51 and the viability stood at 95.8%.

The compound `CN(C)S(=O)(=O)c1ccc(C(=O)Nc2cccc(S(=O)(=O)NC3=NCCC3)c2)cc1` gave a fold increase of 1.32.

Take `Cc1ccc(NS(=O)(=O)c2cc(C(=O)NCCSC3CCCCC3)ccc2C)cc1`: the fold increase is 1.33 and the viability was determined as 84.6%.

As for `N#Cc1c2nc3ccccc3nc2n2cc(NC(=O)c3ccc(F)cc3)ccc12`, the fold increase worked out at 2.64 and the viability is 51.6%.

`N#C/C(=C\c1cc([N+](=O)[O-])c(N2CCOCC2)cc1N1CCOCC1)c1nc2ccccc2[nH]1` registered a fold increase of 1.18.

For the compound `CN1C(=O)/C(=C/C=C2\SCCN2C)SC1=S`, the fold increase was 1.69 and the viability was determined as 103%.

As to `C=CCN1C(=O)c2cccc3c(Br)ccc(c23)C1=O`, the fold increase was determined as 1.38 and the viability was 91.2%.

Regarding `COC(=O)C1=C(C)NC(=O)/C1=C\c1cc(C)n(-c2ccccc2C)c1C`, the fold increase amounted to 1.36 and the viability turned out to be 92.3%.

Take `COc1cc(/C=C2\SC(=S)N(Nc3ccccc3)C2=O)ccc1O`: the fold increase turned out to be 6.3 and the viability was 97.9%.

As for `Cc1noc(/C=C/c2ccc(-c3ccccc3Cl)o2)c1[N+](=O)[O-]`, the fold increase turned out to be 7.53 and the viability was 100%.

With `CN(C)c1ccc(/C=C/c2ccc3ccccc3n2)cc1`, the fold increase turned out to be 2.02.

In the case of `CC(C)Cc1oc(C(=O)O)cc1CN`, the fold increase turned out to be 1.39 and the viability was 98.9%.

Consider `Cc1ccccc1C(=O)Oc1cc(N)n(S(C)(=O)=O)n1`, for which the fold increase came to 1.43 and the viability was determined as 99.5%.

Take `CCCN1C(=O)/C(=C/c2ccc(N3CCOCC3)cc2)NC1=S`: the fold increase was 1.91 and the viability worked out at 93.3%.

As to `N#Cc1c(N)n(-c2ccc(C(=O)O)cc2)c2nc3ccccc3nc12`, the fold increase amounted to 1.36 and the viability came to 95.3%.

As to `Cn1cccc1Cc1nnc(SCC(=O)NC2CCCC2)n1CCc1ccccc1`, the fold increase was 1.39 and the viability stood at 100%.

As for `CCC(C)[C@H](NC(=O)NCC1CCCO1)C(=O)OC` (stereo not given in full), the fold increase is 1.46 and the viability amounted to 96.1%.

As for `Cc1ccc(NC(=O)CN(Cc2ccccc2)S(C)(=O)=O)cc1C`, the fold increase amounted to 1.33 and the viability stood at 98.7%.

For the compound `CCOC(=O)CC(=O)CSc1nc(-c2ccccc2)cc(-c2ccc(Cl)cc2)c1C#N`, the fold increase was 1.35 and the viability came to 98%.

With `O=C(CC1NCCNC1=O)NC1Cc2ccccc2C1` (stereo not given), the fold increase is 1.36 and the viability came out at 95.1%.

On to `NNc1nc2c(-c3ccc(Cl)cc3)nnn2c2ccccc12`, for which the fold increase was determined as 1.68 and the viability stood at 88.5%.

Consider `COc1ccc(C2=CC(c3ccco3)n3ncnc3N2)cc1` (stereo not given), for which the fold increase is 1.57 and the viability is 94.7%.

As for `COc1cc(/C=C(\C#N)C(=O)N2CCc3ccccc32)ccc1O`, the fold increase was 1.35 and the viability is 96.3%.

`Cc1c(C(=O)Oc2ccc(-c3cnc4ccccc4n3)cc2)cccc1[N+](=O)[O-]`: the fold increase is 1.38 and the viability was determined as 91.5%.

`Cc1ccc(/C=[N+](\[O-])c2ccc(N(C)C)cc2)c2nsnc12`: the fold increase is 1.44 and the viability is 90.7%.

For the compound `O=C(O)/C=C/C(=O)Nc1ccc(-n2ccc(C(F)(F)F)n2)cc1`, the fold increase amounted to 1.35 and the viability came out at 98%.

For `C/C(=N/Nc1nc(-c2ccc(Cl)cc2)cs1)c1cccs1`, the fold increase was found to be 1.36.

For `CC(C)c1nc2sc3c(=O)[nH]c(=S)[nH]c3c2c2c1CCC2`, the fold increase came out at 1.42 and the viability was found to be 95%.

`O=C(c1cc2c(ccc3ccccc32)oc1=O)N1CCN(CCO)CC1`: the fold increase is 1.32 and the viability was 101%.

For the compound `COc1ccc(C(=O)c2sc3nc(C)cc(-c4cccs4)c3c2N)cc1OC`, the fold increase was 1.95 and the viability came out at 88.9%.

As for `Nc1ccc2c3c(cccc13)C(=O)N(c1ccccc1)C2=O`, the fold increase was 8.39 and the viability was 97.6%.

As to `Cc1ccc(Nc2nc(Cl)c(C=O)s2)cc1`, the fold increase came out at 1.58 and the viability was 83.1%.

With `Cc1nonc1NC(=O)CSc1nc2ccccc2cc1C#N`, the fold increase was determined as 1.32.

As for `CCOc1cc(CNc2cccc3ccccc23)cc(Br)c1OCC(=O)NC(C)(C)C`, the fold increase stood at 1.48 and the viability was found to be 90.9%.

`COc1cc(/C=C/c2nc3ccccc3s2)cc(OC)c1O`: the fold increase is 8.13 and the viability was 90.5%.

As to `CCOc1cc(/C=C2\SC(=O)N(c3ccc(O)cc3)C2=O)ccc1O`, the fold increase was determined as 1.51 and the viability turned out to be 94.1%.

For the compound `Cc1ccc(C(=O)NNC2=Nc3cccc4cccc2c34)cc1`, the fold increase turned out to be 1.5 and the viability is 73.4%.

`Cc1ccccc1-n1c(=O)cc(N2CCc3ccccc3C2)[nH]c1=O`: the fold increase turned out to be 1.32 and the viability came out at 90.5%.

For `C=CCn1c(SCC(=O)Nc2sccc2C#N)nc2sc(C)c(C)c2c1=O`, the fold increase stood at 1.08.

As to `COc1cc2c3nnc(-c4ccccc4)c-3cn(Cc3ccccc3F)c2cc1OC`, the fold increase amounted to 3.34 and the viability was determined as 91%.

On to `c1cncc(Nc2nc(-c3cccs3)cs2)c1`, for which the fold increase is 1.32 and the viability amounted to 86.8%.

Turning to `CC(Sc1nc2ccccc2s1)C(=O)NC1CCCc2ccccc21` (stereo not given), the fold increase was 1.44 and the viability is 86.5%.

As to `COc1cc2cc(CN(Cc3cccnc3)C(=O)Nc3ccccc3)c(=O)[nH]c2cc1OC`, the fold increase was 1.51 and the viability was 96.4%.

In the case of `C=C(C)CSc1nc2nc(C)c(Br)cc2[nH]1`, the fold increase amounted to 1.34 and the viability was found to be 105%.

Turning to `CCCOc1cc(N(CC)CC)ccc1/C=C(/C#N)c1nc2ccc(C)cc2[nH]1`, the fold increase was determined as 6.6 and the viability is 76.8%.

On to `CCCN1C(=O)/C(=C\C=C2/Sc3ccccc3N2CC)SC1=S`, for which the fold increase stood at 1.46 and the viability came out at 92.3%.

As to `O=S(=O)(c1ccc(F)cc1)N1CN(Cc2ccco2)c2nc3ccccc3nc21`, the fold increase stood at 1.59 and the viability came to 84.4%.

As to `OCC[n+]1ccc(/C=C/c2c[nH]c3ccccc23)cc1`, the fold increase stood at 2.45 and the viability amounted to 86.6%.

`O=S(=O)(/N=C(/c1ccccc1Cl)N1CCOCC1)c1ccccc1`: the fold increase came out at 1.38 and the viability amounted to 94.2%.

Consider `COc1cccc(NC(=O)CN2C(=O)COc3ccc(Cl)cc32)c1`, for which the fold increase was found to be 1.37 and the viability amounted to 90.7%.

On to `Cc1cc(C(F)(F)F)c(C#N)c(SCC(=O)Nc2nc3cc(Br)ccc3s2)n1`, for which the fold increase was 1.78 and the viability was 83.2%.

Turning to `CC(C)Cn1c(/C=C/c2ccco2)nc2ccccc21`, the fold increase was found to be 1.46 and the viability was determined as 94.8%.

Consider `CN1/C(=C\C=C2\N=C(c3ccc(F)cc3)OC2=O)C(C)(C)c2ccccc21`, for which the fold increase was determined as 1.47 and the viability turned out to be 94.1%.

Regarding `COc1ccc(CN(Cc2cccn2C)S(=O)(=O)c2ccc(F)cc2)cc1`, the fold increase amounted to 1.5 and the viability was determined as 97.6%.

As to `N#CCc1nc2ccc(S(=O)(=O)N3CCOCC3)cc2s1`, the fold increase came out at 2.41 and the viability came to 94.4%.

As for `N#CC1=C2N=C(N)c3ccccc3N2C2=C(C(=O)CCC2)C1c1ccc(Cl)cc1` (stereo not given), the fold increase came to 1.39 and the viability is 68.7%.

On to `O=C(CNC(=O)Cc1ccccc1)NCC(=O)OCc1ccc(C(=O)c2ccccc2)cc1`, for which the fold increase stood at 1.44 and the viability was 98.2%.

(Values after PubChem BioAssay AID1956 (SRMLSC, 2009).)
